Measurements reported in publication PMC7819943, “Rice protein-binding microarrays: a tool to detect cis-acting elements near promoter regions in rice”.
The other results are listed elsewhere or left out.

Target: T1, OsWOX13 (Oryza sativa, UniProt Q5QMM3 1-267)
T1 sequence: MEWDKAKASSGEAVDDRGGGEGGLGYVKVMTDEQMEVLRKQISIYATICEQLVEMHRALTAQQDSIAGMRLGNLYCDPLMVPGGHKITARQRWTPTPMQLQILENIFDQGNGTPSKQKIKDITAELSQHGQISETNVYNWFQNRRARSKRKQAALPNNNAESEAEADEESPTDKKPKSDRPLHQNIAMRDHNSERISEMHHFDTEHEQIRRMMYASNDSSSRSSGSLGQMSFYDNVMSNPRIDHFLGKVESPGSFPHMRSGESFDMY
Test: protein-binding microarray (RPBM); PBS, 2% BSA, 51.3 ng/ul salmon testes DNA, 50 uM zinc acetate, 200 nM TF, 25 C, 1 h; high values mean tight binding
Conditions: protein: recombinant; tags: N-terminal polyhistidine and DsRed monomer fusion (pET32a); label: CyDye5-dUTP incorporated in the synthesized complementary strand; 3' TTTTT single-stranded linker to array surface; dsDNA, one strand shown
How it was run: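 Transcription factors were each fused at the N-terminus to a polyhistidine tag plus DsRed and expressed in E. coli BL21-CodonPlus before Ni–NTA purification. Binding to a double-stranded custom Agilent array was carried out with 200 nM protein at 25 °C for 1 h in PBS, 2% BSA, salmon testes DNA and 50 µM zinc acetate. The binding signal is per-feature fluorescence intensity, in arbitrary units, on an Axon 4000B scanner.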

Sequence	binding signal
AAATTAGCTAATATTTAATTAATCACGTATTAATGGACCGCGGAGTCACCTAGTGCAG	10300 fluorescence intensity (a.u.)
ACATAATTGTTTACGTACTGGCTGCCAATTAAGTTAAGTCCGGAGTCACCTAGTGCAG	35400 fluorescence intensity (a.u.)
TTTTCTGTCTATTTGGTTAACCGAAGAGACTAACCGAATTCGGAGTCACCTAGTGCAG	3440 fluorescence intensity (a.u.)
GAAGATTTAAATTTTGACTTATAAGCCTAAGTGAAAAGATCGGAGTCACCTAGTGCAG	10500 fluorescence intensity (a.u.)
CCCAATGCTAAATCAAATGATTGCTGACACTGAACAAAATCGGAGTCACCTAGTGCAG	11900 fluorescence intensity (a.u.)
AATTAAAATTATAAATCAATAACTTAGTTAGCTAACTATGCGGAGTCACCTAGTGCAG	26400 fluorescence intensity (a.u.)
GCATTAATGTCTGGATTGAGTGCTGCCTTGTACATGTCTCCGGAGTCACCTAGTGCAG	3950 fluorescence intensity (a.u.)
ATAAAATGTTAAGGACTAAATTGATCATTAAATAAAAGTTCGGAGTCACCTAGTGCAG	17000 fluorescence intensity (a.u.)
CCCTTCTTAATTGCCCCAACTGTTTGTTTCCTGATTTGATCGGAGTCACCTAGTGCAG	23900 fluorescence intensity (a.u.)
GTGTAGGCCTTGATTGGGCCGAAGCAAATCTCACCGTAACCGGAGTCACCTAGTGCAG	10500 fluorescence intensity (a.u.)
ATCTATCTATCATCAAGCTGATCATCCATACTTGTTGATCCGGAGTCACCTAGTGCAG	4970 fluorescence intensity (a.u.)
TGTATATTAACTGATGGAAATATAATAGTATCACTATATGCGGAGTCACCTAGTGCAG	13600 fluorescence intensity (a.u.)
GACTGATATGTTTAAAATTAAGCTAGTGTGCTCAGGTCTGCGGAGTCACCTAGTGCAG	5060 fluorescence intensity (a.u.)
AACTAATTAATTTATTGGCAGGCACTGGCCTACCAAACCTCGGAGTCACCTAGTGCAG	53100 fluorescence intensity (a.u.)
GAGTATAATTACAGCGAATTATCTGAACACTGAATTATCGCGGAGTCACCTAGTGCAG	20600 fluorescence intensity (a.u.)
AACATTCAAAGTGATTTAATTTCTCCTTGGTCTTGATGTCCGGAGTCACCTAGTGCAG	6030 fluorescence intensity (a.u.)
AACATCTGATTGTGTTGAAACACTATTGCTCCATTGTGAACGGAGTCACCTAGTGCAG	9650 fluorescence intensity (a.u.)
TGAAATTGATATTGATGCCATAGTGAATATGACTTCGCATCGGAGTCACCTAGTGCAG	39700 fluorescence intensity (a.u.)
CTATCAATCAATTCCTTCTTATTTAGAAACCAATCAAGATCGGAGTCACCTAGTGCAG	36400 fluorescence intensity (a.u.)
TTGATAATTATTGACGTTTCAAATAATTGTCAAACTTCACCGGAGTCACCTAGTGCAG	36900 fluorescence intensity (a.u.)
AACAAATATGACTTGACAGATTAAAATCCATTTCCACAGTCGGAGTCACCTAGTGCAG	10700 fluorescence intensity (a.u.)

Sequence	binding signal
GAAAATTAGTACTCCCTCCAGTAGCCTTGTTATTGTGCGGCGGAGTCACCTAGTGCAG	5790 fluorescence intensity (a.u.)
CAGTATGCAAAACTTGGTGATTGAGATATCATCAGTTGCTCGGAGTCACCTAGTGCAG	5980 fluorescence intensity (a.u.)
CTTGAATTATGCTGTCTAAAGTTGTCATCTTTCTGAATGACGGAGTCACCTAGTGCAG	6970 fluorescence intensity (a.u.)
GGATTAATTAGGCTTAATAAATTTGTCTCACAGTTTACATCGGAGTCACCTAGTGCAG	36600 fluorescence intensity (a.u.)
TATATATATATATATATATATATATATATAAGAAAATAAACGGAGTCACCTAGTGCAG	6130 fluorescence intensity (a.u.)
ATACTAATTTGTTCTATAAAGTTGTTGGAGAAACCGTGTTCGGAGTCACCTAGTGCAG	30800 fluorescence intensity (a.u.)
TAAAACAAATCATCGAAATATTATCAATGAAATCGTACATCGGAGTCACCTAGTGCAG	3550 fluorescence intensity (a.u.)
AAATATAATTACAGTATAATCGTAGTGTAATTACATTGTACGGAGTCACCTAGTGCAG	20800 fluorescence intensity (a.u.)
AGCTCTTAATTAGCAGCACAATTTGCATGCGCATGCACACCGGAGTCACCTAGTGCAG	7840 fluorescence intensity (a.u.)
TGGTTTGCCCTGATTGGTCGCGTGACGCGTCCTCATATGCCGGAGTCACCTAGTGCAG	17500 fluorescence intensity (a.u.)
CTAAACGTTGTTAAAATTTGTTTACACTGTCTGGTAATTCCGGAGTCACCTAGTGCAG	4460 fluorescence intensity (a.u.)
CAGCAGATAGAATAATCACAAGAATTACTGTGGTTCTGGGCGGAGTCACCTAGTGCAG	14100 fluorescence intensity (a.u.)
TATTAATTATGACAAAACCGACAAATGAGTATACATAAAGCGGAGTCACCTAGTGCAG	8180 fluorescence intensity (a.u.)
CATTGATATAAACTGACAACATGCTGCTGCTGAGAATATGCGGAGTCACCTAGTGCAG	18300 fluorescence intensity (a.u.)
GCATACATAATTGATAGAGAAGAAAATGATGAGAAAACCTCGGAGTCACCTAGTGCAG	35800 fluorescence intensity (a.u.)
AGTTTTAATAATTGATTTCCAAGAGAAATTTGTGTGTTTGCGGAGTCACCTAGTGCAG	30300 fluorescence intensity (a.u.)
GGTGAGTGACTGGAGAGCCGTTGGTTGGGCACTTGCGGTTCGGAGTCACCTAGTGCAG	12600 fluorescence intensity (a.u.)
GTTTCTGATATCATTGATTGCTATCCTCCTCCTCCTCCTTCGGAGTCACCTAGTGCAG	34600 fluorescence intensity (a.u.)
TCAGCACAGTGTTGATTGAGTAGGTTCATCAGGAAGCAGACGGAGTCACCTAGTGCAG	13700 fluorescence intensity (a.u.)
AGTTCTGTTAATGGATGAATCAGGAAAGATGTGCCACGTACGGAGTCACCTAGTGCAG	5810 fluorescence intensity (a.u.)
TTGAGATGATTTACTATTAATTTAGTCTATTGTTGAGATGCGGAGTCACCTAGTGCAG	35700 fluorescence intensity (a.u.)
